Measurements: paper PMC6212790
Some of the results follow. At the low end of the ranking the order means little.

Each sequence was assayed against T1, GST-Rok-C97-191 (UniProt O34857) (assay: protein binding microarray). Conditions: Rok is a gene silencer of Bacillus subtilis; high values mean tight binding; most listed sequences are background and not binding sites; double strand, one strand shown.
T1 sequence: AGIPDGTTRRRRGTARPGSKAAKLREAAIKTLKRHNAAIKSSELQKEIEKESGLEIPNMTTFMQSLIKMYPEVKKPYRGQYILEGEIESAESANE
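Also: rank score from −0.5 (least bound) to 0.5 (best bound).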

Sequence | binding signal
TCCGGCAA | -0.0311 E-score
CAAGGGAG | -0.169 E-score
CGAAACAC | 0.027 E-score
AAACAAGA | 0.025 E-score
CTCGGAAG | -0.17 E-score
AAGTCCCG | -0.22 E-score
AAACTTAA | 0.0956 E-score
GCGGCCGA | -0.352 E-score
ATCCAGCA | -0.031 E-score
GAGAAGCC | -0.251 E-score
CGCCAAAC | -0.224 E-score
CTCATATC | 0.0444 E-score
CACTAAAA | 0.299 E-score
CTTGATCC | -0.0474 E-score
CAAGGAAA | -0.191 E-score
ACTTGCGA | -0.0408 E-score
ACGTCCTG | -0.0421 E-score
AATGTTAC | 0.108 E-score
GTCGTGAA | -0.104 E-score
TCCGTCAA | -0.0899 E-score
CTCGGAGC | 0.0375 E-score
AAATTCAT | 0.155 E-score
AAGGCCTG | -0.231 E-score
AATATGCG | 0.0732 E-score
CCGCTGAA | -0.0489 E-score

Sequence | binding signal
GACGCTTA | -0.0575 E-score
GGAGGCTA | -0.193 E-score
CCTGGACC | -0.168 E-score
ATTTGGTA | 0.226 E-score
CAAGGGGA | -0.179 E-score
CTAAGTAA | 0.266 E-score
AAAGATGA | -0.0439 E-score
GCCCTCGA | -0.232 E-score
ACGGGAGA | -0.12 E-score
CCAAACCC | -0.222 E-score
GGCCAACA | -0.212 E-score
GAGTGCAA | 0.0161 E-score
AATAAGCT | 0.0671 E-score
CTTGGCCA | -0.0866 E-score
CGGGACCA | -0.262 E-score
AGACGACG | -0.128 E-score
CTCGTCAG | -0.0744 E-score
ACCCTAGC | 0.0226 E-score
AGTGGCGG | -0.0551 E-score
GCAATCCC | -0.104 E-score
CGTTGGTC | -0.247 E-score
CAACGCCC | -0.225 E-score
CCAACGTC | -0.222 E-score
ATTCACCG | -0.181 E-score
ACTATAGT | 0.411 E-score

Sequence | binding signal
GTCTAATA | 0.166 E-score
CTAGCGTA | 0.0171 E-score
AAGTCGCA | -0.0762 E-score
ACGACGCG | -0.0881 E-score
ACAACCCA | 0.011 E-score
GTAACTGA | 0.203 E-score
AAGGAGAA | -0.0912 E-score
AACGTAGG | 0.0823 E-score
ATTTGTTA | 0.308 E-score
CAACACTC | -0.0681 E-score
CCTCAGAC | -0.179 E-score
GCAGGGCA | -0.207 E-score
CTCAAGAC | -0.206 E-score
CACTCGCG | -0.00827 E-score
AATGGTAT | 0.328 E-score
ATGTCCTC | -0.0441 E-score
AGTATAAA | 0.289 E-score
AATGGCCC | 0.109 E-score
ACGGGGCT | -0.144 E-score
ATATATAT | 0.443 E-score
TGAGAACA | -0.0288 E-score
TCCCACCA | -0.245 E-score
TAGTCGAA | 0.0574 E-score
CGGAGGGC | -0.276 E-score
AACAGCTT | 0.0324 E-score

Sequence | binding signal
GGGTGTGA | -0.225 E-score
AATAGTCT | 0.0533 E-score
ACAAGTCA | -0.0107 E-score
ATGGCTTG | -0.101 E-score
AGGTGAAT | -0.0354 E-score
CCACGCCG | -0.326 E-score
CACTATAC | 0.0932 E-score
CGGGGCCA | -0.0415 E-score
ACATCCGT | 0.0993 E-score
CCACCTCA | -0.113 E-score
CCTTGCAC | -0.11 E-score
CGAATTTA | 0.187 E-score
ATGTACGA | 0.226 E-score
AAATCGTA | 0.167 E-score
CATGCACG | -0.127 E-score
CGTCAAGC | 0.00259 E-score
TTTCCAAA | 0.0983 E-score
ACGCTCAC | -0.0887 E-score
GGACGGGA | -0.208 E-score
GGGTTAAA | 0.202 E-score
TATACATA | 0.401 E-score
ACTAGGTA | 0.251 E-score
CGATCAAC | 0.0491 E-score
CGAAGAAG | -0.184 E-score
AAATCAGA | 0.0403 E-score

Sequence | binding signal
CCGCGGAG | -0.19 E-score
ACCGAATC | -0.0933 E-score
ACCGTTCA | 0.218 E-score
CACCCTAC | -0.0195 E-score
ATTCTAGC | 0.249 E-score
CCTAGCAA | 0.105 E-score
ACAGGAAA | 0.0683 E-score
TTCCGGAA | -0.206 E-score
CATACTGG | 0.179 E-score
AATTGCGG | 0.0377 E-score
CAAGAAGG | -0.193 E-score
ACCGTATG | 0.0299 E-score
CAGGAAGC | -0.162 E-score
ACGGCGCT | -0.18 E-score
GGTGCTAA | -0.249 E-score
CGCTCACG | -0.284 E-score
ACCACAGT | 0.0254 E-score
TTACGCAA | 0.0483 E-score
ACTGTTAA | 0.114 E-score
TACCCGTA | 0.0307 E-score
AAGTCGAG | -0.138 E-score
ACGATAAG | 0.173 E-score
ATGATCAG | 0.117 E-score
AATTTGCC | 0.0991 E-score
GGAAGCGA | -0.0973 E-score

Sequence | binding signal
AGATGAGG | -0.119 E-score
ACTCAACT | 0.0515 E-score
AATCCAGC | -0.0135 E-score
TCGGGGAA | -0.165 E-score
AACACACG | -0.0535 E-score
AACGAAGG | -0.132 E-score
ACGCCTGG | -0.228 E-score
AACTCCTG | -0.0788 E-score
AGCTGCCA | -0.0119 E-score
CTCCCACC | -0.233 E-score
CTAGCAAC | 0.222 E-score
AGTACCCG | -0.0244 E-score
ACAAGCAG | -0.0955 E-score
CGGAAACG | -0.196 E-score
GGCAGTAC | -0.0613 E-score
CAAACTAC | 0.446 E-score
CGAGAGCC | -0.299 E-score
GGACCGGA | -0.125 E-score
GAGCCATA | -0.121 E-score
AAGGTCCC | -0.368 E-score
CCATTCAG | -0.0929 E-score
CTGATTTA | 0.00411 E-score
GCCCACAC | -0.12 E-score
TCCGCAAA | -0.216 E-score
GCCAGTAC | -0.0877 E-score

Sequence | binding signal
AGAGATCC | -0.0984 E-score
AAAGTCAG | -0.033 E-score
CGGTTTAA | 0.00113 E-score
GCTTCAAC | 0.0139 E-score
AACAGGGT | 0.0781 E-score
CCTTGATA | 0.0226 E-score
CCGATCAG | -0.0114 E-score
TTGGCCAA | -0.309 E-score
CGCTGTGC | -0.189 E-score
AGCCTGGG | -0.0869 E-score
CTGGTTTC | -0.12 E-score
GGTACTGA | -0.0797 E-score
GTCATAAC | -0.251 E-score
GTTGTCGA | 0.0565 E-score
TAGCACAA | 0.179 E-score
CTCACCGC | -0.109 E-score
AATCCGTC | 0.0808 E-score
ACGCCGAG | -0.211 E-score
AGTGCCAT | 0.0196 E-score
AGACGTCA | 0.0181 E-score
GAAAACGA | -0.0582 E-score
ACAAAACT | 0.105 E-score
